# Some of the results follow. Repeats are few or missing, and single values can be far off.
# Test system: IPC-298
# Test: cell count relative to DMSO control; melanoma cells; higher = more viable cells
# Conditions: library dose: low library concentration; 72 h
# 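Note: cell number obtained by counting DAPI-stained nuclei in high-throughput microscope images with image analysis software, screen run in 1,536-well plates.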
row,Compound,cell count [%]
1,"Cn1c(=O)n(-c2ccc(C(C)(C)C#N)cc2)c2c3cc(-c4cnc5ccccc5c4)ccc3ncc21 + CN1CCN(c2ccc3nc(-c4c(N)c5c(F)cccc5[nH]c4=O)[nH]c3c2)CC1 [Dovitinib] (first compound 0.004 µM, partner dose 0.1 µM)",95.2
2,"CC(C)C[C@H](NC(=O)[C@H](Cc1ccccc1)NC(=O)c1cnccn1)B(O)O [Bortezomib] + CCCS(=O)(=O)Nc1ccc(F)c(C(=O)c2c[nH]c3ncc(Cl)cc23)c1F [PLX4720] (first compound 0.001 µM, partner dose 0.08 µM)",54.6
3,"Cc1cn(-c2cc(NC(=O)c3ccc(C)c(Nc4nccc(-c5cccnc5)n4)c3)cc(C(F)(F)F)c2)cn1 [nilotinib] + OCc1c[nH]c2ccccc12 [Indole-3-carbinol] (first compound 0.2 µM, partner dose 0.8 µM)",88.4
4,"CC(C)C[C@H](NC(=O)[C@H](Cc1ccccc1)NC(=O)c1cnccn1)B(O)O [Bortezomib] + Cn1c(Nc2ccc(C(F)(F)F)cc2)nc2cc(Oc3ccnc(-c4ncc(C(F)(F)F)[nH]4)c3)ccc21 [CHIR265] (first compound 0.001 µM, partner dose 0.08 µM)",52.8
5,"Cc1cc(Nc2cc(N3CCN(C)CC3)nc(/C=C/c3ccccc3)n2)n[nH]1 + Cn1nnc2c(C(N)=O)ncn2c1=O [temozolomide] (first compound 0.04 µM, partner dose 2 µM)",93.7
6,"Cc1cn(-c2cc(NC(=O)c3ccc(C)c(Nc4nccc(-c5cccnc5)n4)c3)cc(C(F)(F)F)c2)cn1 [nilotinib] + Cn1nnc2c(C(N)=O)ncn2c1=O [temozolomide] (first compound 0.2 µM, partner dose 2 µM)",91.9

# Test system: IST-MEL1
# Test: as above
# Conditions: library dose: low library concentration; 72 h
row,Compound,cell count [%]
1,"COc1ccc(C2=N[C@@H](c3ccc(Cl)cc3)[C@@H](c3ccc(Cl)cc3)N2C(=O)N2CCNC(=O)C2)c(OC(C)C)c1 [Nutlin-3] + C=C(c1ccc(C(=O)O)cc1)c1cc2c(cc1C)C(C)(C)CCC2(C)C [Bexarotene] (first compound 0.1 µM, partner dose 2 µM)",99.4
2,"Cc1cc(Nc2cc(N3CCN(C)CC3)nc(/C=C/c3ccccc3)n2)n[nH]1 + Cc1nc(Nc2ncc(C(=O)Nc3c(C)cccc3Cl)s2)cc(N2CCN(CCO)CC2)n1 [dasatanib] (first compound 0.04 µM, partner dose 0.004 µM)",109
3,"Cc1cn(-c2cc(NC(=O)c3ccc(C)c(Nc4nccc(-c5cccnc5)n4)c3)cc(C(F)(F)F)c2)cn1 [nilotinib] + CC(=O)O[C@@]12CO[C@@H]1C[C@H](O)[C@@]1(C)C(=O)[C@H](O)C3=C(C)[C@@H](OC(=O)[C@H](O)[C@@H](NC(=O)OC(C)(C)C)c4ccccc4)C[C@@](O)([C@@H](OC(=O)c4ccccc4)[C@H]21)C3(C)C [Docetaxel] (first compound 0.2 µM, partner dose 0.0001 µM)",88.4
4,"Cn1c(=O)n(-c2ccc(C(C)(C)C#N)cc2)c2c3cc(-c4cnc5ccccc5c4)ccc3ncc21 + CO[C@H]1C[C@@H]2CC[C@@H](C)[C@@](O)(O2)C(=O)C(=O)N2CCCC[C@H]2C(=O)O[C@H]([C@H](C)C[C@@H]2CC[C@@H](OCCO)[C@H](OC)C2)CC(=O)[C@H](C)/C=C(\C)[C@@H](O)[C@@H](OC)C(=O)[C@H](C)C[C@H](C)/C=C/C=C/C=C/1C [everolimus] (first compound 0.004 µM, partner dose 0.02 µM)",59
5,"COc1ccc(C2=N[C@@H](c3ccc(Cl)cc3)[C@@H](c3ccc(Cl)cc3)N2C(=O)N2CCNC(=O)C2)c(OC(C)C)c1 [Nutlin-3] + C[C@]1(c2nc3c(C(N)=O)cccc3[nH]2)CCCN1 [Veliparib] (first compound 0.1 µM, partner dose 1.4 µM)",92.5
6,"COc1ccc(C2=N[C@@H](c3ccc(Cl)cc3)[C@@H](c3ccc(Cl)cc3)N2C(=O)N2CCNC(=O)C2)c(OC(C)C)c1 [Nutlin-3] + Nc1cccc2c1CN(C1CCC(=O)NC1=O)C2=O [lenalidomide] (first compound 0.1 µM, partner dose 1 µM)",96.1
7,"CC(C)C[C@H](NC(=O)[C@H](Cc1ccccc1)NC(=O)c1cnccn1)B(O)O [Bortezomib] + O=C(O)[C@@H]1[O][Sb](=[O])([O][Sb]2(=[O])[O][C@H]([C@H](O)CO)[C@H](O)[C@H](C(=O)O)[O]2)[O][C@H]([C@H](O)CO)[C@@H]1O [stibogluconate] (first compound 0.001 µM, partner dose 2 µM)",96.2
8,"COc1ccc(C2=N[C@@H](c3ccc(Cl)cc3)[C@@H](c3ccc(Cl)cc3)N2C(=O)N2CCNC(=O)C2)c(OC(C)C)c1 [Nutlin-3] + Nc1ccn([C@@H]2O[C@H](CO)[C@@H](O)C2(F)F)c(=O)n1 [gemcitabine] (first compound 0.1 µM, partner dose 0.0004 µM)",98
9,"Cc1cc(Nc2cc(N3CCN(C)CC3)nc(/C=C/c3ccccc3)n2)n[nH]1 + CCCS(=O)(=O)Nc1ccc(F)c(C(=O)c2c[nH]c3ncc(Cl)cc23)c1F [PLX4720] (first compound 0.04 µM, partner dose 0.08 µM)",92.2
10,"Cn1c(=O)n(-c2ccc(C(C)(C)C#N)cc2)c2c3cc(-c4cnc5ccccc5c4)ccc3ncc21 + COc1ccc(Cl)c(Nc2nc3ccccc3nc2NS(=O)(=O)c2cccc(NC(=O)C(C)(C)N)c2)c1 [XL147] (first compound 0.004 µM, partner dose 0.8 µM)",84.4
11,"Cc1cn(-c2cc(NC(=O)c3ccc(C)c(Nc4nccc(-c5cccnc5)n4)c3)cc(C(F)(F)F)c2)cn1 [nilotinib] + NC(=O)c1ccc(N(C(N)=O)c2c(F)cccc2F)nc1-c1ccc(F)cc1F [VX702] (first compound 0.2 µM, partner dose 0.4 µM)",99.2
12,"Cc1cn(-c2cc(NC(=O)c3ccc(C)c(Nc4nccc(-c5cccnc5)n4)c3)cc(C(F)(F)F)c2)cn1 [nilotinib] + O=C(O)c1ccc2c(c1)nc(Nc1cccc(Cl)c1)c1ccncc12 [CX4945] (first compound 0.2 µM, partner dose 0.4 µM)",104
13,"Cc1cn(-c2cc(NC(=O)c3ccc(C)c(Nc4nccc(-c5cccnc5)n4)c3)cc(C(F)(F)F)c2)cn1 [nilotinib] + C[C@]1(O)C[C@@H](c2nc(-c3ccc4ccc(-c5ccccc5)nc4c3)c3c(N)nccn32)C1 [OSI906] (first compound 0.2 µM, partner dose 0.4 µM)",86.6
14,"CC(C)C[C@H](NC(=O)[C@H](Cc1ccccc1)NC(=O)c1cnccn1)B(O)O [Bortezomib] + Nc1nc(F)nc2c1ncn2[C@@H]1O[C@H](CO)[C@@H](O)[C@@H]1O [fludarabine] (first compound 0.001 µM, partner dose 0.2 µM)",74.4
15,"COc1ccc(C2=N[C@@H](c3ccc(Cl)cc3)[C@@H](c3ccc(Cl)cc3)N2C(=O)N2CCNC(=O)C2)c(OC(C)C)c1 [Nutlin-3] + CNC(=O)c1cc(Oc2ccc(NC(=O)Nc3ccc(Cl)c(C(F)(F)F)c3)cc2)ccn1 [sorafenib] (first compound 0.1 µM, partner dose 0.4 µM)",109
16,"COc1ccc(C2=N[C@@H](c3ccc(Cl)cc3)[C@@H](c3ccc(Cl)cc3)N2C(=O)N2CCNC(=O)C2)c(OC(C)C)c1 [Nutlin-3] + COCC[n+]1c2c(n(Cc3cnccn3)c1C)C(=O)c1ccccc1C2=O [YM155] (first compound 0.1 µM, partner dose 0.0004 µM)",99.5
17,"COc1ccc(C2=N[C@@H](c3ccc(Cl)cc3)[C@@H](c3ccc(Cl)cc3)N2C(=O)N2CCNC(=O)C2)c(OC(C)C)c1 [Nutlin-3] + Nc1nc(F)nc2c1ncn2[C@@H]1O[C@H](CO)[C@@H](O)[C@@H]1O [fludarabine] (first compound 0.1 µM, partner dose 0.2 µM)",94.5
18,"COc1ccc(C2=N[C@@H](c3ccc(Cl)cc3)[C@@H](c3ccc(Cl)cc3)N2C(=O)N2CCNC(=O)C2)c(OC(C)C)c1 [Nutlin-3] + CC(C)C[C@H](NC(=O)[C@H](Cc1ccccc1)NC(=O)c1cnccn1)B(O)O [Bortezomib] (first compound 0.1 µM, partner dose 0.001 µM)",92.1
19,"CC(C)C[C@H](NC(=O)[C@H](Cc1ccccc1)NC(=O)c1cnccn1)B(O)O [Bortezomib] + CNC(=O)c1cc(Oc2ccc(NC(=O)Nc3ccc(Cl)c(C(F)(F)F)c3)cc2)ccn1 [sorafenib] (first compound 0.001 µM, partner dose 0.4 µM)",79.7
20,"Cc1cc(Nc2cc(N3CCN(C)CC3)nc(/C=C/c3ccccc3)n2)n[nH]1 + Nc1ccn([C@@H]2O[C@H](CO)[C@@H](O)C2(F)F)c(=O)n1 [gemcitabine] (first compound 0.04 µM, partner dose 0.0004 µM)",90.5
21,"CC(C)C[C@H](NC(=O)[C@H](Cc1ccccc1)NC(=O)c1cnccn1)B(O)O [Bortezomib] + Cc1nc(Nc2ncc(C(=O)Nc3c(C)cccc3Cl)s2)cc(N2CCN(CCO)CC2)n1 [dasatanib] (first compound 0.001 µM, partner dose 0.004 µM)",80.8

# Reference: the supplement of paper PMC4604168 (melanoma cell lines)
